Test results published in PubChem BioAssay AID226 (DTP/NCI, 2004).
Inconclusive results and toxic doses are left out. The source holds more than one record for some entries. They are shown here; other results are not. The source may hold further records. Results that share an entry do not match, cause unknown; dose, time, organism, isomer or construct need not be as stated for each record.

Test system: B6C3F1 mice, intracerebral ependymoblastoma, median survival T/C
Assay: NCI In Vivo Anticancer Drug Screen. Data for tumor model Ependymoblastoma (intracerebral) in B6C3F1 mice
Conditions: endpoint: median survival time; dose: 128.0 mg/kg/injection; schedule: Q01DX005 (ip); vehicle: saline with Tween-80; higher = longer survival
Method: The antitumor activity of compounds was measured in mice bearing transplantable tumors. Survival or tumor size were measured and the results are expressed as the measurement made in the treated group (T) divided by the measurement made in the vehicle treated control group (C). The tumor model used in this assay is Ependymoblastoma (intracerebral) in B6C3F1 mice

CCCCCCCCN(C)/N=N/c1nc[nH]c1C(N)=O
T/C: 114 % of control and 150 % of control
